Assay results: PubChem BioAssay AID624417 (National Center for Advancing Translational Sciences (NCATS), 2012)
Among all 410,000 compounds or so, about 6,400 (1.6%) were called active. The inconclusive results got no clear call from the source; some entries with a clear call stand among them for comparison. Calls come from the whole dose curve; as a rule, active = well fitted inhibition curve with a large enough effect; inconclusive = small, poorly fitted or top-dose-only effect; inactive = no such curve, though single readings can be large or run the other way. Where the call is inconclusive, the potency comes from a doubtful curve fit.

Target: Glucagon-like peptide 1 receptor (Homo sapiens) (UniProt P43220)
Assay: qHTS of GLP-1 Receptor Inverse Agonists (Inhibition Mode); note: nearly all actives have a fitted effect of over 55% in size
Settings: HEK293 GLP-1R CRE-luciferase, luminescence, 24 h, GLP-1R form is constitutively active; series mostly up to 38.3 µM
In short: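 Stable HEK293 clone (constitutively active GLP-1R + cAMP-response luciferase); 200 cells/uL plated, 12 h pre-culture, compound 24 hr, 37 deg C/5% CO2; detection reagent 12 min RT; luminescence.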
Potency is the fitted concentration of half-maximal effect; tags give direction and shape of the fitted curve.

UniProt P43220, sequence (P43220 whole entry, looked up): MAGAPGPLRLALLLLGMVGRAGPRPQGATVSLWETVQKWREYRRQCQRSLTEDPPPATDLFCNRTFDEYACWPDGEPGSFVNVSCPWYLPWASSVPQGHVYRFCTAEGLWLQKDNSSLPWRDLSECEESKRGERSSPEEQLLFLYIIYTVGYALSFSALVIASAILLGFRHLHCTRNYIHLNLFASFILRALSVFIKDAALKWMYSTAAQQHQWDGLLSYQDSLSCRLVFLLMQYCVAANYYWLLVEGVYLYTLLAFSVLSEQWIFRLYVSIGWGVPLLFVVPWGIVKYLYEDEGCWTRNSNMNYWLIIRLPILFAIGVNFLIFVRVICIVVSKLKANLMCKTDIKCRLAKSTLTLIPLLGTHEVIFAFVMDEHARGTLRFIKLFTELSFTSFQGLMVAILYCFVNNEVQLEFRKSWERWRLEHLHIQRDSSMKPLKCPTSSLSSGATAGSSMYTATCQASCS

Potency, active:
COc1cccc(C(=O)NCC2(c3ccccc3)CCCC2)c1OC 7.08 µM

Potency, inconclusive:
O=C(NC1CC2CCCC(C1)N2Cc1ccc(F)cc1)c1ccc(F)cc1 (stereo not drawn) 7.94 µM [inhibitor, partial curve, poor fit]
COc1ccc2c(c1)[C@H]1[C@H](CO2)[C@H](c2ccccc2)[C@]2(C)C(=O)Nc3ccc(C)cc3C(=O)N12 12.6 µM [inhibitor, single point]
Cc1ccc(S(=O)(=O)c2c(N)n(CCCN(C)C)c3nc4ccccc4nc23)cc1 31.6 µM [inhibitor, single point]
COc1ccc(OC)c(NC(=O)CCCSc2ccccc2)c1 12.6 µM [inhibitor, single point]
CCOC(=O)C1CCCN(C(=O)Cn2ncc3c4ccccc4n(Cc4ccc(F)cc4)c3c2=O)C1 (stereo not drawn) 11.2 µM [inhibitor, single point]
COc1ccc2noc3c2c1C(=O)c1ccccc1-3 28.2 µM [inhibitor, single point]
Cc1cc(C)cc(NC2=NCC(=O)N2Cc2ccccc2)c1 11.2 µM [inhibitor, single point]
CCc1nc2ccc(C(=O)N3CCN(c4cccc(OC)c4)CC3)cc2nc1CC 28.2 µM [inhibitor, single point]
c1ccc(Nc2nc(N3CCOCC3)nc(N3CCOCC3)n2)cc1 31.6 µM [inhibitor, single point]
O=C(CSc1ncn[nH]1)N1N=C2/C(=C/c3ccccc3)CCCC2C1c1ccccc1 (stereo not drawn) 10 µM [inhibitor, partial curve, poor fit]
Cc1ccccc1-n1c(SCc2csc(Nc3ccccc3)n2)nnc1-c1cccnc1 12.6 µM [inhibitor, partial curve, poor fit]
CC1CN(CC(O)COC(c2ccc(Cl)cc2)c2ccc(Cl)cc2)CC(C)O1 (stereo not drawn) 3.98 µM [inhibitor, partial curve, poor fit]
O=C(Nc1ccc(Cl)cc1)c1cc(Br)ccc1OCC(=O)N1CCOCC1 5.62 µM [inhibitor, partial curve, poor fit]
CCSc1ccccc1C(=O)N1CCC2(CC1)CC(=O)c1ccccc1O2 28.2 µM [inhibitor, single point]
COc1ccc(/C=N/Nc2nc(Nc3ccccc3)nc(N3CCCCC3)n2)c(OC)c1 5.62 µM [inhibitor, partial curve]
CCOc1ccccc1N(CC(=O)Nc1ccc(OC)cc1)S(=O)(=O)c1ccccc1 28.2 µM [inhibitor, single point]
CCCN(CCC)C(=O)CC(c1ccccc1)c1ccco1 (stereo not drawn) 12.6 µM [inhibitor, single point]
COc1ccc(C2/C=C\CN(S(=O)(=O)/C=C/c3ccccc3)[C@H](Cc3ccccc3)C(=O)N2Cc2ccc(F)cc2)cc1 (stereo partly drawn) 2.24 µM [inhibitor, full curve, poor fit]
O=C(NCC(=O)N1CCCC(C(F)(F)F)C1)c1ccc2ccccc2c1 (stereo not drawn) 12.6 µM [inhibitor, single point]
NNC(=O)CNC(c1ccccc1)c1cc(Br)ccc1NC(=O)c1ccc(Br)cc1 (stereo not drawn) 20 µM [inhibitor, single point]
Cc1[nH]c2ccc(C(=O)OC(C)C(=O)NCc3ccccc3)cc2c1C (stereo not drawn) 6.31 µM [inhibitor, partial curve]
COC(=O)c1cccc(-n2sc3ccccc3c2=O)c1 3.98 µM [inhibitor, partial curve, poor fit]
O=C(CSCc1ccco1)N1CCc2ccccc21 28.2 µM [inhibitor, single point]
COc1ccccc1NC(=O)C(=O)c1cn(CC(=O)N2CCCC2)c2ccccc12 11.2 µM [inhibitor, single point]
COc1ccc2[nH]c(C(=O)N3CCCN(Cc4ccc(F)cc4)CC3)cc2c1 31.6 µM [inhibitor, partial curve, poor fit]
Cc1onc(-c2ccccc2)c1CNC(=O)Nc1ccccc1 28.2 µM [inhibitor, single point]
Cc1csc(SCC(=O)NC(C)C2CC3CCC2C3)n1 (stereo not drawn) 28.2 µM [inhibitor, single point]
CC(C)(C)c1cc2cccnc2n1Cc1cccc(F)c1 10 µM [inhibitor, single point]
COc1cc(C(=O)OCc2csc(CC(=O)Nc3ccccc3C)n2)ccc1OCC(C)C 12.6 µM [inhibitor, single point]
O=[N+]([O-])c1cccc(OCC(O)CN2CCN(S(=O)(=O)c3cc(Cl)ccc3Cl)CC2)c1 (stereo not drawn) 31.6 µM [inhibitor, partial curve, poor fit]
COc1ccc(OCCn2cc(C(=O)c3ccco3)c3ccccc32)cc1 10 µM [inhibitor, partial curve, poor fit]
Cc1ccc(-c2noc(CN(C3CCCCC3)S(=O)(=O)c3ccc(F)cc3)n2)cc1 12.6 µM [inhibitor, single point]
Cc1ccc(C)c(CN2C(=O)COc3ccc(C(=O)c4ccccc4C(=O)O)cc32)c1 28.2 µM [inhibitor, partial curve, poor fit]
Cc1ccc(-c2nnc(Cc3ccc(Cl)cc3)o2)cc1 28.2 µM [inhibitor, single point]
CC1CCCCC1NC(=O)COC(=O)C12CC3CC(CC(Cl)(C3)C1)C2 (stereo not drawn) 28.2 µM [inhibitor, single point]
CC1(C)Cc2ccccc2-c2nc(NCCCO)n(-c3ccccc3)c(=O)c21 6.31 µM [inhibitor, partial curve, poor fit]
CCc1nc2ccc(C(=O)NCc3ccc4c(c3)OCO4)cn2c1N(CC)CCN(C)C 22.4 µM [inhibitor, single point]
c1ccc(CSc2nnc(Cc3ccccc3)o2)cc1 22.4 µM [inhibitor, single point]
COc1ccc(-c2cnc3c(NC=O)cc(-c4cccc(NS(C)(=O)=O)c4)cn23)cc1OC 28.2 µM [inhibitor, single point]
CCOC(=O)C1(CCOC)CCN(C(=O)c2ccccc2-c2cccc(C)c2)CC1 28.2 µM [inhibitor, single point]
COc1ccc(-c2cc(C(=O)OCC(=O)N3CCCCC3)c3ccccc3n2)cc1OC 28.2 µM [inhibitor, single point]
O=C(c1ccccc1)C1OC1C(=O)c1ccccc1 (stereo not drawn) 5.01 µM [inhibitor, full curve, poor fit]
CSc1ccc(C(=O)C2CCCN(Cc3ccc(N4CCNC4=O)cc3)C2)cc1 (stereo not drawn) 10 µM [inhibitor, partial curve, poor fit]
Cc1ccc(-n2ncc(C(=O)NC3CC3)c2C2CCN(C(=O)OC(C)(C)C)CC2)cc1 3.98 µM [inhibitor, partial curve, poor fit]
CCC(C)NC(=O)CSc1nnc(-c2cc(-c3ccc(C)cc3)nc3ccccc23)n1N (stereo not drawn) 12.6 µM [inhibitor, partial curve]
O=C(c1ccc(Cl)cc1)C(CN1CCCC1)c1ccccc1 (stereo not drawn) 10 µM [inhibitor, partial curve, poor fit]
COc1ccccc1NS(=O)(=O)c1cccc(C(=O)N2CCN(C/C=C/c3ccccc3)CC2)c1 12.6 µM [inhibitor, partial curve]
CCCC[C@H]1COCCS(=O)(=O)N1Cc1ccc(C)cc1 28.2 µM [inhibitor, single point]

Potency, inactive:
COc1ccc(C2N=C(c3ccccc3)C(C)(C)N2O)cc1OC (stereo not drawn)
CCc1nnc(NC(=O)CSc2nc3c([nH]c4ccccc43)c(=O)n2-c2ccc(C)cc2)s1
COc1ccc(CN2C(=O)c3cccnc3C2=O)cc1S(=O)(=O)NCc1ccc(C)o1
COC(=O)c1ccc(CNC(=O)c2nc(Cn3nc(C)c(Br)c3C)no2)cc1
O=C(CCCCCn1c(=O)[nH]c2ccccc2c1=O)N1CCN(c2ccc(Cl)cc2)CC1
COc1cccc(CC(=O)OCC(=O)NNC(=O)c2ccc([N+](=O)[O-])cc2)c1
COc1ccc(-c2nc(C)c(CCNC(=O)c3ccco3)s2)cc1
O=c1c2[nH]c3ccccc3c2ncn1Cc1ccncc1
CN(Cc1ccccc1)C(=O)COC(=O)c1ccc[nH]c1=O
CCc1ccc(NC(=O)Cn2c(=O)n(Cc3ccc4c(c3)OCO4)c(=O)c3oc4ccccc4c32)cc1
CC(C)N(C(=O)c1sc2cc([N+](=O)[O-])ccc2c1Cl)C(C)C
O=C(NCc1ccc(Cl)cc1)C1CCN(c2nnc(N3CCCC3=O)s2)CC1
CN(C)c1cc[n+](Cc2c(Cl)cccc2Cl)cc1
Cc1oc2ccc(O)c(CN3CCN(C)CC3)c2c1C(=O)Nc1ccc(C(C)C)cc1
